Values marked as one replicate rest on one cluster of the flow cell; about a third of the high ones do not repeat.
System: ATP
Assay: switch fluorescence ratio, 500 uM ATP over buffer (Cy3 cluster intensity, sum of 5 cycles each) (fold (ratio)); higher = stronger signal-on switching upon ATP binding; sequences stand for … in TCGTCGGCAGCGTCAGATGTGTATAAGAGACAGTTTTTTTTTTTTTTTTTTTTTTTTT…TC
Settings: aptamer strand: ATP DNA aptamer (quencher-CACCTGGGGGAGTATTGCGGAGGAAGG + anchor), 100 nM annealed; ATP concentration: 500 uM; one replicate
Method in brief: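 Between each of five buffer/ATP cycles, the flow-cell was stripped with NaOH and re-annealed. Each cycle imaged Cy3-labelled switching-strand clusters, annealed to 100 nM quencher-labelled ATP aptamer on a modified Illumina MiSeq flow-cell, first in selection buffer and then after 15 min with 500 uM ATP at 22 °C. The fluorescence ratio is summed target-cycle over summed buffer-cycle Cy3 intensity per cluster, averaged per switch-domain sequence, with clusters outside 100-1000 RFU excluded.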
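Further: ATP exposure 15 min at 22 °C before imaging.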

Sequence	switch fluorescence ratio
TATGAAGCA	1.01
CTATTTGGGT	0.989
AGATGTTATG	0.965
TTTGTCCCCT	0.965
AGCTCCTGTT	0.99
AAGGGTCGAA	1.01
ATCCATCCTA	1.02
CATTATATA	1.02
CGTACAGGAA	1.05
TTCACCTGAG	1.08
GCTAGAGTGG	0.987
AGGTTGTCTT	0.979
GCGTGGCTGA	1.03
ATCCAGAGCC	1.07
GGCTGATAT	1.03
TGGAAATCGA	0.997
ATCGACTGTT	1.04
ACTAGCCACT	0.997
TGTTTTGCG	1.01
CTGAGAAAAT	0.969
CCTCGATGTT	1.02
GGTGCTAGGG	0.995
TATAGTTGTC	1.07
GACATCGATC	1.02
CCTTGACTTT	0.982
TTTAGAAGT	0.989

Sequence	switch fluorescence ratio
ATTCGAGGAG	0.989
GGTCTTGTGA	0.952
GATTACAAAT	1.01
TGCAACAGGG	1.08
AGTTGACTCT	1.01
TCTATTACC	0.994
CGGCGAGCCC	1.05
TGTGTACCCC	1.08
GCACAGAAGA	0.987
CAATCTATTG	1
TCGAATGTTC	0.973
AGCTCTTAT	1.04
TGCGACTTTA	1.06
ATTTCCCCGT	1.13
AATTCCCATG	1.03
GGCGCCGGG	1
GATTTAAACC	1.04
TAGCGTAAAG	1.04
CGTGAGGCTC	1.05
GGCGAGTTTG	1
AATATTTT	1.01
TATCGTTCAA	1.06
AGGTTTGGCG	1.03
GTACTAGGTC	1.02
GAGTCAGTTT	0.996
GCGAGGAGTG	0.997

Sequence	switch fluorescence ratio
TACGTCCTC	1.09
GGTAAACGGT	0.964
ATAGATCAAA	0.99
GAAAGGAACA	1.02
CGGAGATGC	1.23
AATATGGCGC	1.02
ACTATCTTGG	1.02
TAAGGCTAGC	0.954
CTAATGCTTT	1
ATCCAATATC	1.32
ATGAAAAGAC	1.04
CCACAAGCTG	1.19
CAGAGTTGCC	1.05
GACGTTTTAT	1.01
AAATAGTTCT	1.14
ATGACTCGTT	1.04
CAGTTCCCAG	1.02
AATTATAGGA	1.02
AGTTGCGGGG	1.04
GGGGAGGTCA	0.981
CATAGCGTCC	1.06
CAGCCCATCT	0.987
ACGTTAGGTA	1.06
TCCCCATCC	1.08
ACTTAATCCG	1.49
GGTCTAGTAT	0.964

Sequence	switch fluorescence ratio
TGACTGGTTG	1.02
AGTGGCTAAA	0.978
GGCTCCGAAT	2.33
GTTACTTAG	1.08
CGTAGTTATT	1.03
GCAATGGAGG	1.05
ACGACTGCGA	3.08
AATAATCATA	0.942
AATCGGAGAA	0.991
AGTTTGAACC	0.994
GATTGAGTAA	1.04
GCTACATCTA	1.01
GAACGGTGAG	1.01
TGGATCCCGT	1.06
TTGTAGGC	1.01
CGTCTGCGGT	0.979
CTAGCGGATT	1
GGGCCGGCGG	0.987
CAATTATTTA	1.01
GTTTAGTAAC	0.98
TTGACAGCTT	1.03
CTGGATCGTT	0.944
TGGACGTTTG	1.01
CCGTGTGTTT	1.03
GCCCCACTTA	1.02
GCCTTTAAAG	0.963

Sequence	switch fluorescence ratio
GTCATTAAGG	1.01
ACTGTGGTTA	0.997
TCGTGTACAT	0.991
CAATCTATGT	0.973
ACCCTATTTA	1.01
CGCCATTAAG	0.972
TTACGCAGCG	1.01
TTCGCGTTAC	3.8
TGGGCGGACG	1.02
TCGACTCTTC	1.07
TACGGAAAAT	1.02
AACAGGCGAG	0.95
GGCTAGGCCT	0.994
TGTGTAGGCT	1.03
TGGGAACCTG	1.01
AATATTCCTT	1.08
AGAAGTTCTG	1.07
TAAAGTTCCT	1.1
CGGTATGTCA	0.913
CCATCCCAGC	1.01
GTTCTACCAC	1.02
TCTAAGAAAT	0.97
CTCCATACGG	1.15
CGGCCGTAAC	1.07
GAACACCGAT	1.08
AGGTTTAAGC	1.03

Sequence	switch fluorescence ratio
GGCGCAAGAA	1.02
GTTGGGCA	1.04
TTCTTGCCAG	1.02
ATGAACAGGA	0.997
CACGCTTAGG	1.01
TGATTGTTC	0.997
ATGAGGAGTA	1.06
CTTTACCAAC	1.21
GAATAATCGG	1.02
AGTTATGGAA	0.963
GCGGAGAGCA	1.01
ACTGTACGCC	1.36
AATATGAAAT	0.966
GGACCTCGT	0.954
AATAGGAAG	0.929
CATGCGGATC	1.08
ACGGACACCC	1.48
ACTCGTTTTG	1.01
AGACTGGGAC	1.01
TGCGATATGT	1.05
TTAGTCTCTA	0.985
CGGCCGGGG	0.985
GACTGGTGGC	1
GTAGTGGTGG	0.992
